From the supplement of paper PMC4967469
By IC50 is meant the dose at which the fit gives 50% viability; a fit beyond the top or the lowest dose is shown as a bound at that dose. AUC is the area under the same curve over the 256-fold range up to the top dose, as a fraction; it is 1 without any effect and falls as sensitivity rises. For some assays here: A top dose marked as inferred is not printed in the source and was worked back from the curve model. For some assays here: Drugs with an entry number were screened twice under separate entries, and the two screens often disagree.

Experiments:
Test in all cases: Viability of human cancer cell lines after 72 h of drug (GDSC screen)
[1] = compound: Fc1cc(-c2ccnc(Nc3ccc(-n4cnc(N5CCOCC5)n4)cc3)n2)cc(N2CCOCC2)c1 [JNK-9L]; settings: top dose 5.12 µM; top dose inferred
Experimental: (§1)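 Human cancer cell lines in 384-well plates, medium with 10% serum, drug for 72 h over a 256-fold dose range (nine 2-fold or five 4-fold steps up to the top dose). Adherent lines were fixed and stained with the nucleic acid dye Syto60, suspension lines read with resazurin; signal relative to control wells, capped at 0 and 100%. One two-parameter sigmoid per drug and line, fitted in a mixed model over all curves with the slope shared within a line.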

[2] = compound: C#Cc1cccc(Nc2ncnc3cc(OC)c(OCCCCCCC(=O)NO)cc23)c1 [CUDC-101]; settings: top dose 5.12 µM; top dose inferred
Experimental: as §1

[3] = compound: O=c1[nH]cc(F)c(=O)[nH]1 [5-Fluorouracil]; settings: top dose 32 µM; top dose inferred
Experimental: as §1

[4] = compound: COc1cc(F)c(F)c(Nc2ccc(I)cc2F)c1NS(=O)(=O)C1(C[C@H](O)CO)CC1 [RDEA119]; settings: top dose 5 µM, top dose inferred
Experimental: as §1

[5] = compound: NCC(=O)Nc1ccc(-n2nc(C(F)(F)F)cc2-c2ccc3c(ccc4ccccc43)c2)cc1 [OSU-03012]; settings: top dose 16 µM; top dose inferred
Experimental: as §1

[6] = compound: OC[C@H](Cc1ccccc1)Nc1nc(Oc2ccc3c(c2)CCC3)nc2c1ncn2Cc1ccc(-c2ccccc2)cc1 [QS11]; settings: top dose 10.24 µM
Experimental: as §1

[7] = compound: CC(C)(C)c1cc(NC(=O)Nc2ccc(-c3cn4c(n3)sc3cc(OCCN5CCOCC5)ccc34)cc2)no1 [AC220]; settings: top dose 1.024 µM; top dose inferred
Experimental: as §1

| Cell Line | AUC [1] | IC50 [1] | AUC [2] | IC50 [2] | AUC [3] | IC50 [3] | AUC ([4]; screen: GDSC drug entry 1014) | IC50 ([4]; screen: GDSC drug entry 1014) | AUC ([4]; screen: GDSC drug entry 1526) | IC50 ([4]; screen: GDSC drug entry 1526) | AUC [5] | IC50 [5] | AUC [6] | IC50 [6] | AUC [7] | IC50 [7] |
| --- | --- | --- | --- | --- | --- | --- | --- | --- | --- | --- | --- | --- | --- | --- | --- | --- |
| L-363 (myeloma, suspension) | 0.513 | 0.345 µM | 0.47 | 0.268 µM | 0.668 | 5.45 µM | 0.942 | > 5 µM | 0.953 | > 5 µM | 0.726 | 3.95 µM | 0.844 | 5.9 µM | 0.976 | > 1.02 µM |
| L-428 (Hodgkin lymphoma, suspension) | 0.631 | 0.702 µM | 0.99 | > 5.12 µM | 0.991 | > 32 µM | 0.989 | > 5 µM | 0.979 | > 5 µM | 0.818 | 7.65 µM | 0.988 | > 10.2 µM | 0.973 | > 1.02 µM |
| L-540 (Hodgkin lymphoma, suspension) | 0.544 | 0.415 µM | 0.979 | > 5.12 µM | 0.987 | > 32 µM | 0.986 | > 5 µM | 0.982 | > 5 µM | 0.779 | 5.81 µM | 0.929 | > 10.2 µM | 0.99 | > 1.02 µM |
| L-1236 (Hodgkin lymphoma, suspension) | 0.76 | 1.54 µM | 0.492 | 0.305 µM | 0.953 | > 32 µM | 0.967 | > 5 µM | 0.981 | > 5 µM | 0.973 | > 16 µM | 0.987 | > 10.2 µM | 0.992 | > 1.02 µM |
| LAMA-84 (chronic myeloid leukaemia, suspension) | 0.805 | 2.63 µM | 0.723 | 1.39 µM | 0.667 | 5.89 µM | 0.422 | 0.191 µM | 0.942 | > 5 µM | 0.757 | 5.57 µM | 0.91 | > 10.2 µM | 0.978 | > 1.02 µM |
| LAN-6 (neuroblastoma, adherent) | 0.761 | 2.15 µM | 0.831 | 4.11 µM | 0.924 | > 32 µM | 0.571 | 0.508 µM | 0.803 | 3.04 µM | 0.768 | 7.12 µM | 0.974 | > 10.2 µM | 0.931 | > 1.02 µM |
| LB373-MEL-D (melanoma, adherent) | 0.629 | 0.718 µM | 0.512 | 0.344 µM | 0.965 | > 32 µM | 0.748 | 1.58 µM | 0.694 | 1.08 µM | 0.88 | > 16 µM | 0.967 | > 10.2 µM | 0.986 | > 1.02 µM |
| LB771-HNC (head and neck, adherent) | 0.328 | 0.093 µM | 0.964 | > 5.12 µM | 0.928 | > 32 µM | 0.969 | > 5 µM | 0.848 | > 5 µM | 0.813 | 11.5 µM | 0.742 | 3.83 µM | 0.982 | > 1.02 µM |
| LB831-BLC (bladder, adherent) | 0.521 | 0.366 µM | 0.604 | 0.622 µM | 0.928 | > 32 µM | 0.872 | 4.87 µM | 0.926 | > 5 µM | 0.851 | 12.6 µM | 0.987 | > 10.2 µM | 0.987 | > 1.02 µM |
| LB996-RCC (kidney, adherent) | 0.586 | 0.572 µM | 0.773 | 2.32 µM | 0.977 | > 32 µM | 0.939 | > 5 µM | 0.853 | 4.95 µM | 0.863 | > 16 µM | 0.976 | > 10.2 µM | 0.983 | > 1.02 µM |
| LB1047-RCC (kidney, adherent) | 0.503 | 0.326 µM | 0.566 | 0.497 µM | 0.938 | > 32 µM | 0.673 | 1.01 µM | 0.698 | 1.22 µM | 0.752 | 5.91 µM | 0.91 | > 10.2 µM | 0.98 | > 1.02 µM |
| LB2241-RCC (kidney, adherent) | 0.643 | 0.84 µM | 0.784 | 2.46 µM | 0.971 | > 32 µM |  |  | 0.704 | 1.27 µM | 0.721 | 4.59 µM | 0.901 | > 10.2 µM | 0.984 | > 1.02 µM |
| LB2518-MEL (melanoma, adherent) | 0.579 | 0.531 µM | 0.68 | 1.05 µM | 0.97 | > 32 µM | 0.341 | 0.11 µM | 0.421 | 0.187 µM | 0.774 | 6.63 µM | 0.87 | > 10.2 µM | 0.987 | > 1.02 µM |
| LC4-1 (lymphoblastic leukaemia, suspension) | 0.507 | 0.336 µM | 0.33 | 0.102 µM | 0.726 | 9.52 µM | 0.952 | > 5 µM | 0.953 | > 5 µM | 0.767 | 6.58 µM | 0.954 | > 10.2 µM | 0.908 | > 1.02 µM |
| LC-1-sq (lung squamous cell carcinoma, adherent) | 0.738 | 1.75 µM | 0.802 | 3.04 µM | 0.958 | > 32 µM | 0.894 | > 5 µM | 0.971 | > 5 µM | 0.867 | > 16 µM | 0.977 | > 10.2 µM | 0.983 | > 1.02 µM |
| LC-2-ad (lung adenocarcinoma, adherent) | 0.44 | 0.219 µM | 0.425 | 0.198 µM | 0.667 | 5.93 µM | 0.902 | > 5 µM | 0.859 | 4.3 µM | 0.512 | 1.08 µM | 0.857 | 8.64 µM | 0.972 | > 1.02 µM |
